Some of the results follow. Repeats are few or missing, and single values can be far off.
System: MEL-HO
Assay: cell count relative to DMSO control; melanoma cells; higher = more viable cells
Settings: library dose: low library concentration; 72 h
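Further: cell number obtained by counting DAPI-stained nuclei in high-throughput microscope images with image analysis software, screen run in 1,536-well plates.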

| SMILES | cell count [%] |
| --- | --- |
| Cc1cc(Nc2cc(N3CCN(C)CC3)nc(Sc3ccc(NC(=O)C4CC4)cc3)n2)n[nH]1 [Tozasertib] + CC1(C)NC(=O)N(c2ccc([N+](=O)[O-])c(C(F)(F)F)c2)C1=O [nilutamide] (first compound 0.006 µM, partner dose 1 µM) | 93.8 |
| CC[C@]1(O)C[C@H]2CN(CCc3c([nH]c4ccccc34)[C@@](C(=O)OC)(c3cc4c(cc3OC)N(C=O)[C@H]3[C@@](O)(C(=O)OC)[C@H](OC(C)=O)[C@]5(CC)C=CCN6CC[C@]43[C@@H]65)C2)C1 [vincristine] + COc1ccc(Cl)c(Nc2nc3ccccc3nc2NS(=O)(=O)c2cccc(NC(=O)C(C)(C)N)c2)c1 [XL147] (first compound 0.0001 µM, partner dose 0.8 µM) | 99 |
| N#CC[C@H](C1CCCC1)n1cc(-c2ncnc3[nH]ccc23)cn1 [ruxolitinib] + CCN(CC)CCNC(=O)c1c(C)[nH]c(/C=C2\C(=O)Nc3ccc(F)cc32)c1C [sunitinib] (first compound 1 µM, partner dose 0.4 µM) | 105 |
| Cc1cc(Nc2cc(N3CCN(C)CC3)nc(Sc3ccc(NC(=O)C4CC4)cc3)n2)n[nH]1 [Tozasertib] + COc1cc([C@@H]2c3cc4c(cc3[C@@H](O[C@@H]3O[C@@H]5CO[C@@H](C)O[C@H]5[C@H](O)[C@H]3O)[C@H]3COC(=O)[C@H]23)OCO4)cc(OC)c1O [etoposide] (first compound 0.006 µM, partner dose 0.02 µM) | 97.7 |

From the supplement of paper PMC4604168 (melanoma cell lines)
